Measured values taken from PMC6919601, “Identification of Plasmodium dipeptidyl aminopeptidase allosteric inhibitors by high throughput screening” (PLoS ONE, 2019).
Out of some 110,000 compounds screened, about 230 (0.21%) showed an effect of 50% or more. The list shows a part of the results.

target: DPAP1 (Plasmodium falciparum, UniProt Q8IIJ9); test: primary screen, percent inhibition; read by cleavage of a fluorogenic dipeptide substrate; higher = more effect of the substance; parameters: species or system P. falciparum D10 trophozoite lysates; single well
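Also: 30 min substrate incubation versus DMSO and 10 µM JCP410 controls.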

Chain of DPAP1 (Q8IIJ9 whole entry, looked up): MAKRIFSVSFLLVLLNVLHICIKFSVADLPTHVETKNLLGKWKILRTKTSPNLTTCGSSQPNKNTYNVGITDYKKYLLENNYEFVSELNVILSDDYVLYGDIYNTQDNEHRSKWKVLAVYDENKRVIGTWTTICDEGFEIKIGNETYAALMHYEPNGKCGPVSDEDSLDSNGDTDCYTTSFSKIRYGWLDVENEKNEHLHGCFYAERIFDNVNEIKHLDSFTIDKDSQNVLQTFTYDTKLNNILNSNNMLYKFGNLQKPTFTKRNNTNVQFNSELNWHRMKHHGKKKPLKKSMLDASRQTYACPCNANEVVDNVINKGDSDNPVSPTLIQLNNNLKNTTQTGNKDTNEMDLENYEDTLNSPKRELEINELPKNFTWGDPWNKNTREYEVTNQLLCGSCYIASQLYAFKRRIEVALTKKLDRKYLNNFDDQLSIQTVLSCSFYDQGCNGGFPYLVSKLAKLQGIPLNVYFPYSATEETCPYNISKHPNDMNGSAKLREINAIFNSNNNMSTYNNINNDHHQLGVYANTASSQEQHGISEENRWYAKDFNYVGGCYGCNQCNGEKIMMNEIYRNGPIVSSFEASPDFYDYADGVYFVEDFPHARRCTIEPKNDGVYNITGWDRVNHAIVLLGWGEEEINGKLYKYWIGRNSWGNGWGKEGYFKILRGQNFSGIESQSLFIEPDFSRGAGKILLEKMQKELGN

| Compound | % Inhibition @ 10 uM [%] |
| --- | --- |
| CC1(C)CC(NC2C3CC4CC(C3)CC2C4)CC(C)(C)N1 (centres unmarked) | -5.44 |
| Cc1cc(C)c(C=C2C(=O)c3ccccc3C2=O)c(C)c1C | -2.32 |
| CCOc1cc(CNCc2cc(OC)cc(OC)c2)ccc1OC | 3.86 |
| CN1C(=O)/C(=C/c2ccc(-c3ccccc3C(=O)O)o2)S/C1=N/c1ccc(C(=O)O)cc1 | 22.7 |
| O=C(N(CCN(Cc1ccccc1)C(=O)C(F)(F)F)Cc1ccccc1)C(F)(F)F | -2.8 |
| CCCCCc1ccc(-c2ccc(C(=O)Nc3ccc4ccccc4c3)cc2)cc1 | -1.91 |
| CCOC(=O)N1CCN(CCCc2ccccc2)CC1 | -1.21 |
| O=C(Nc1ccc([N+](=O)[O-])cc1)C1CC1c1ccccc1 (centres unmarked) | -0.415 |
| N#CC1=C(N)Oc2cc3c(cc2C1c1ccc(OCc2ccccc2Cl)cc1)OCO3 (centres unmarked) | -4.84 |
| Cn1c(=O)c2sccc2n2c(CCCC(=O)NCCCN3CCCC3=O)nnc12 | -3.88 |
| CCOc1cc2c(cc1/C=C1/NC(=O)N(CC(=O)Nc3ccc(Cl)cc3)C1=O)OCO2 | -6.16 |
| Cc1ccc(CNC(=O)c2oc3c(c2C)-c2n[nH]cc2CC3)cc1 | 1.72 |
| Cc1cc(-c2ccc(S(=O)(=O)NCc3cccnc3)s2)on1 | -1.59 |
| COc1ccc(S(=O)(=O)NCC2CCN(S(=O)(=O)c3ccc(OC)cc3)CC2)cc1 | -5.35 |
| CCOc1ccc(NC(=O)CN(c2ccccc2C)S(=O)(=O)c2ccccc2)cc1 | 0.635 |
| O=C(O)/C=C/c1cccc(NC(=O)c2ccccc2)c1 | 1.24 |
| Cc1nc(-c2cc3ccccc3nc2O)no1 | -1.92 |
| C=CCOc1ccc(Br)cc1C1C2=C(O)CCCC2=NC2=C1C(=O)CCC2 (centres unmarked) | -4.49 |
| Cc1ccc2oc(-c3ccccc3N)nc2c1 | 2.6 |
| O=C(Cc1ccccc1)NC1CCC(NC(=O)Cc2ccccc2)CC1 (centres unmarked) | 6.84 |
| O=C(/C=C/c1ccc(F)cc1)n1cnc2ccccc21 | 14.5 |
| CCCn1c(/C=C/c2ccccc2)nc2ccccc21 | -0.0626 |
| CCCCNC(=O)c1cnn2c(C)c(Cc3ccc(C)cc3)c(C)nc12 | -2.48 |
| O=C1NC(=O)C(C(c2ccccc2)c2ccccc2)C(=O)N1 | 0.0345 |
| CC(=O)Nc1ccc(CN2CCN(c3ccc(C)cc3)CC2)cc1 | -2.95 |
| Cc1nc(SCC(=O)O)c2oc3ccccc3c2n1 | 0.273 |

| Compound | % Inhibition @ 10 uM [%] |
| --- | --- |
| CCOC(=O)c1c(NC(=O)/C=C/c2cccs2)sc(C(=O)OC)c1C | 3.06 |
| COc1ccc(-n2nnc(S(=O)(=O)c3ccc(C)cc3)c2C)cc1Cl | -9.21 |
| COc1ccc2c(c1)C(C(C(C)=O)C(=O)c1ccc(F)cc1)c1ccccc1O2 (centres unmarked) | -5.38 |
| O=C(c1cc2ccc3cccnc3c2[nH]1)N1CCC(Cc2ccccc2)CC1 | 4.11 |
| C=CCOC(=O)n1c(SC)nc2ccccc21 | 2.79 |
| CCNC(=O)CN(c1cc(C)cc(C)c1)S(=O)(=O)c1ccc(OC)c(OC)c1 | -2.14 |
| COc1cc(OC)cc(C(=O)N2CCN(Cc3cccc(OC)c3OC)CC2)c1 | -4.01 |
| COc1ccc(-c2c(C)oc3c(CN4CCN(C)CC4)c(O)ccc3c2=O)cc1OC | 5.5 |
| Cc1c(CNC2CCCC2)c(C(=O)O)c(C)n1Cc1c(F)cccc1Cl | -3.67 |
| CCN(Cc1ccccc1)C(=O)Cn1cccc1C(=O)c1ccccc1 | -5.89 |
| O=C(Nc1ccc(F)cc1)C1CC(=O)N(c2ccc(Cl)cc2)C1 (centres unmarked) | 0.769 |
| COc1ccc(C)cc1NC(=O)c1ccc(Br)o1 | -1.44 |
| Cc1cc(Cl)ccc1OCC(=O)NCCOc1nc(N2CCOCC2)nc(N2CCOCC2)n1 | 2.05 |
| CC1CCCN(C2=NC(=O)/C(=C\c3cccc(O)c3)S2)C1 (centres unmarked) | 2.09 |
| Cc1ccc(S(=O)(=O)N(CC(=O)NCc2ccccn2)c2ccc(Cl)cc2)cc1 | -3.19 |
| CC(C)Cn1c(CN(C)Cc2ccccc2)nc2c1c(=O)n(C)c(=O)n2C | 0.317 |
| O=C(O)c1ccccc1/C=C\c1ccc(Cl)s1 | 3.05 |
| CCC(C)NC(=O)c1ccccc1NS(=O)(=O)c1ccc2c(c1)OCCO2 (centres unmarked) | -4.7 |
| O=C1CCCC/C1=C/Nc1cccc(F)c1 | -4.61 |
| COc1ccc(C(=O)Nc2c(C(=O)NC(C)(C)C)oc3ccccc23)cc1 | -0.528 |
| CCCCCn1cc(C(=O)NCc2ccccc2)c2ccccc21 | -0.834 |
| O=C(NCC1CCCO1)c1ccc(Cn2c(SCc3ccccc3F)nc3ccncc32)cc1 (centres unmarked) | 6.02 |
| CCOC(=O)c1snc2c(O)ncnc12 | -3.64 |
| O=C1NC2(CCN(C(=O)c3ccccc3Cl)CC2)N=C1c1ccccc1 | 6.99 |
| CC1CCCCN1c1ncnc2sc3c(c12)CCC3 (centres unmarked) | -1.65 |
| COc1ccc(C(=O)NC(C(C(C)=O)C(C)=O)(C(F)(F)F)C(F)(F)F)cc1 | -1.47 |

| Compound | % Inhibition @ 10 uM [%] |
| --- | --- |
| CCOc1ccc(Nc2ncnc3sc(CC)cc23)cc1 | -0.711 |
| Cc1ccccc1CN1CCNC(=O)C1CC(=O)O (centres unmarked) | -1.11 |
| O=C(NCc1ccccn1)c1ccc(Cl)c(Cl)c1 | -2.42 |
| Nc1c(Cl)cc(N2C(=O)c3ccc(C(=O)O)cc3C2=O)cc1Br | 1.34 |
| Cc1cc(C)c(NC(=O)Cn2cnc3c2c(=O)n(C)c(=O)n3C)c(C)c1 | -5.71 |
| Clc1nc(N2CCOCC2)nc(N(c2ccccc2)c2ccccc2)n1 | 2.62 |
| O=C(COc1ccccc1)Nc1ccc(S(=O)(=O)Nc2nccs2)cc1 | 0.658 |
| CC(=O)c1ccc(N2CCN(Cc3ccc4c(c3)OCO4)CC2)cc1 | 3.95 |
| COc1cc(/C=C2\Sc3ccccc3C2=O)cc(OC)c1O | 0.385 |
| O=C1NC(c2ccc(Cl)cc2)c2c(-c3ccco3)n[nH]c21 (centres unmarked) | -3.35 |
| O=C(Nc1ccc(Br)cc1)C1CC1(c1ccccc1)c1ccccc1 (centres unmarked) | -2.72 |
| O=C(c1ccc2c(c1)sc1nc(-c3ccc(F)cc3)cn12)N1CCC2(CC1)OCCO2 | 38.1 |
| COc1ccc(S(=O)(=O)N(CC(=O)NC2CCCC2)c2cccc(Cl)c2)cc1 | -0.512 |
| Cn1ncc(C(=O)N2CCCCCC2)c1C1CCN(C(=O)OC(C)(C)C)CC1 | 3.61 |
| CCCN(Cc1ccccc1[N+](=O)[O-])CC1CC1 | 2.1 |
| COc1ccc(-c2nc(-c3ccccn3)no2)cc1OC | -5.07 |
| Cc1cc(OCC(=O)Nc2ccc(S(=O)(=O)Nc3nccs3)cc2)ccc1Br | 6.65 |
| Cc1ccc2oc(=O)c3cc(C(=O)N(CCN(C)C)Cc4ccco4)sc3c2c1 | 3.6 |
| CCC(CC)C(=O)Nc1cccc(NC(=O)c2cccs2)c1 | 3.29 |
| Cc1ccc2occ(C3Nc4ccccc4N=C4CC(C)(C)CC(O)=C43)c(=O)c2c1 (centres unmarked) | -1.08 |
| CC(=O)Nc1ccc(C2C(C#N)=C(N)Oc3cc(N)ccc32)cc1 (centres unmarked) | 0.317 |
| COc1ccccc1N1C(=O)C2C(C1=O)C1CC2[C@H](S)[C@H]1S (some centres unmarked) | -0.48 |
| CCOC(=O)c1c(C)c(C(=O)NC(C)c2ccccc2)c(C)n1C (centres unmarked) | -1.66 |
| COc1cc2ccccc2cc1C(=O)NCCc1ccccc1 | -9.2 |
| O=C(O)CCC(=O)Nc1ccc(-c2cn3ccsc3n2)cc1 | -4.12 |
| CC(C)(C)NS(=O)(=O)c1ccc2[nH]c3c(c2c1)CCCCC3 | 0.098 |

| Compound | % Inhibition @ 10 uM [%] |
| --- | --- |
| CC(C)c1ccc(C2C(C#N)=C(N)OC3=C2C(=O)CCC3)cc1 (centres unmarked) | -4.12 |
| CNC(=O)OCc1nc(COC(=O)NC)nc(COC(=O)NC)n1 | -1.18 |
| CCN(CC)C(=O)c1cc([N+](=O)[O-])cc([N+](=O)[O-])c1N | 1.7 |
| CCOC(=O)c1nc(-c2ccc(C(F)(F)F)cc2)no1 | -0.92 |
| Cc1cc(C)c(C)c(/C=C(/C#N)C(N)=O)c1C | -3.38 |
| Cn1c(C(=O)N2CCCC(C(=O)NCc3ccc(F)cc3)C2)cc2sccc21 (centres unmarked) | -11.6 |
| O=C(Nc1cc(-c2ccccc2)sc1C(=O)O)c1cccnc1 | -2.17 |
| CN(C)c1ncc(C(=O)O)cn1 | 3.88 |
| CCn1cc(C(=O)OCc2ccc(F)cc2Cl)c(=O)c2ccc(C)nc21 | 1.09 |
| Cn1c(=O)c2c(nc(NCc3ccco3)n2Cc2cccc3ccccc23)n(C)c1=O | -4.39 |
| COc1ccc(OCCCn2ccnc2)cc1 | -3.94 |
| COc1ccc(-c2noc(CCC(=O)NCc3ccc(F)cc3Cl)n2)cc1 | 60.3 |
| O=C(NC1(C(F)(F)F)N=C2SCCN2C1=O)C1CCCCC1 (centres unmarked) | 1.01 |
| COCCNC(=O)C(c1ccccc1)N1Cc2ccccc2C1=O (centres unmarked) | 3.98 |
| COc1ccc(OC)c(-c2csc(NC(=O)c3nn(C)c(C)c3Br)n2)c1 | 0.389 |
| CN(C)c1nc(OCC(=O)Nc2ccc(Cl)cc2)nc(N(C)C)n1 | 0.992 |
| CC(=O)N1CCC2(CC1)OC(=O)C(C)=C2C(=O)NCCCN1CCOCC1 | 2.11 |
| CCCCN(C)c1nnnc2c1sc1nc(N3CCOCC3)c3c(c12)CC(C)(C)OC3 | -2.9 |
| O=C1c2cccnc2C(=O)N1Cc1ccc(S(=O)(=O)NCc2ccccn2)s1 | -0.767 |
| CCOc1cc(C2NC(=O)N(C)C(C)=C2C(=O)OCCc2ccccc2)cc(Br)c1O (centres unmarked) | 0.997 |
| Cc1cccc(NC(=O)CCC(=O)O)c1C | 2.4 |
| COc1ccccc1C1C(C#N)=C(N)SC(N)=C1C#N | 29.7 |
| CCOc1ccc(CCNS(=O)(=O)c2c(C)nc3sccn3c2=O)cc1OCC | 4.06 |
